# Measurements: PubChem BioAssay AID540317 (National Center for Advancing Translational Sciences (NCATS), 2011)
# The whole screen tested about 390,000 compounds, of which about 2,200 (0.56%) were called active. The shares of active, inactive and inconclusive entries below differ from those in the screen. The call rests on the fitted dose curve; in most records, active means well fitted inhibition curve with a large enough effect; inconclusive means small, poorly fitted or top-dose-only effect; inactive means no such curve, though single readings can be large or run the other way. A potency beside an inconclusive call is a rough fit, not a confirmed value.
# Target: Chromobox protein homolog 1 (Homo sapiens) (UniProt P83916)
# Assay: HTS for Inhibitors of HP1-beta Chromodomain Interactions with Methylated Histone Tails; further: nearly all actives have a fitted effect of over 70% in size
# Details: AlphaScreen HP1-beta / biotin-H3K9me3 peptide binding; series mostly up to 114 µM; activity change, negative = inhibition: at the top concentration
# How it was run: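 AlphaScreen: HP1-beta (50 nM) preformed 30 min with biotin-H3(1-18)K9me3 peptide (50 nM) in PBS pH 7.4, 0.01% Tween-20. Compound added for 30 min at RT, then streptavidin donor/nickel chelate acceptor beads (10 ug/mL) for 30 min.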
# Potency means the concentration at half of the fitted maximal effect; tags describe the fitted curve by direction and shape.
# UniProt P83916, sequence (P83916 whole entry, looked up): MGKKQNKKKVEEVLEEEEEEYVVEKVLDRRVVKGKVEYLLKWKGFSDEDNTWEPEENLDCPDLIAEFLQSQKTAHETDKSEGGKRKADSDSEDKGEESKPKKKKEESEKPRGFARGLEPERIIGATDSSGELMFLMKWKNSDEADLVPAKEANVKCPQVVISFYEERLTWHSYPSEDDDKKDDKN
Structure (SMILES),Potency,"activity change, negative = inhibition"
COc1cccc(CN2CC(C(=O)N3CCCCCC3)CCC2=O)c1 (stereo not given),"inconclusive: 39.8 µM [inhibitor, single point]",–
CN(C)CCCOc1ccc(Cl)cc1Br,"inconclusive: 14.1 µM [inhibitor, full curve, poor fit]",–
Clc1ccc(/C=N/Nc2nnc(Cl)c3ccccc23)cc1,–,inactive: 35.5%
COc1cccc2c1C(=O)c1c(O)c3c(c(O)c1C2=O)CC(O)(C(C)=NNC(=O)c1ccc(Cl)c(Cl)c1)CC3OC1CC(N)C(O)C(C)O1 (stereo not given),"inconclusive: 50.1 µM [inhibitor, partial curve, poor fit]",–
CCc1cccc(CC)c1N1C(=O)c2cc(N3CCOCC3)c([N+](=O)[O-])cc2C1=O,"inconclusive: 31.6 µM [inhibitor, single point]",–
Cc1nn(-c2ccccc2)c(Cl)c1/C=N/Nc1ccc(Cl)c(C(=O)O)c1,"inconclusive: 70.8 µM [inhibitor, partial curve]",–
COc1ccccc1-c1nc(SCC(=O)NCc2ccccc2)c2c(=O)n(C)c(=O)n(C)c2n1,–,inactive: 19.5% [at 57 µM]
O=C(CSc1nc(C2CC2)nc2ccccc12)Nc1ccccc1,–,inactive: 12.2%
CC(=O)c1ccccc1NS(=O)(=O)c1cccc2nsnc12,"inconclusive: 22.4 µM [inhibitor, partial curve, poor fit]",–
O=[N+]([O-])c1ccccc1N/N=C1\CC2CC=CC12 (stereo not given),active: 17.8 µM,–
S=c1[nH]nc(CNc2cccc(Cl)c2)o1,–,inactive: 20.8%
CN(C)c1ccc(/C=C/C(=O)c2ccccc2)cc1[N+](=O)[O-],"inconclusive: 56.2 µM [inhibitor, partial curve, poor fit]",–
CCOc1cc(/C=C2\C(=N)N3N=C(S(C)(=O)=O)SC3=NC2=O)ccc1OCCOc1cccc(OC)c1,"inconclusive: 56.2 µM [inhibitor, partial curve, poor fit]",–
Cc1ccccc1Nc1nc(NCc2ccco2)c2ccccc2n1,"inconclusive: 70.8 µM [inhibitor, partial curve]",–
Cc1ccc(C(C)C)c(OCCNCCc2ccccc2)c1,"inconclusive: 14.1 µM [inhibitor, full curve]",–
CN(C)c1ccc(C2C3CCCc4ccccc4C3=NN2C)cc1 (stereo not given),"inconclusive: 20 µM [inhibitor, full curve, poor fit]",–
Cc1ccc(NC(=O)c2c3c(nc4ccccc24)C(=O)N(C2CCCCC2)C3)cc1F,"inconclusive: 89.1 µM [inhibitor, partial curve, poor fit]",–
CC(NC(=O)/C(=C\c1ccco1)NC(=O)c1ccccc1Br)C(=O)O (stereo not given),–,inactive: 13.3%
CC(=O)c1ccc(NC(=O)CSc2nnc(-c3ccco3)c(-c3ccco3)n2)cc1,active: 31.6 µM,–
O=C(Nc1nc(-c2ccccc2)cs1)c1ccc(N2CCOCC2)c([N+](=O)[O-])c1,"inconclusive: 8.91 µM [inhibitor, partial curve, poor fit]",–
N#Cc1ccccc1COC(=O)c1ccc2c(c1)OCCO2,–,inactive: 77.7%
CCC(=O)N1CCc2cc(CNS(=O)(=O)c3ccc(C(C)C)cc3)ccc21,–,inactive: 46.4%
CCCN1CCC(NC(=O)C2CCN(C(C)=O)CC2)CC1,–,inactive: 19.4%
Cc1ccccc1OCCOCCN1CCCCCC1,"inconclusive: 50.1 µM [inhibitor, partial curve, poor fit]",–

Structure (SMILES),Potency,"activity change, negative = inhibition"
CCC(C)Nc1ccc(NC(C)CC)cc1 (stereo not given),"inconclusive: 35.5 µM [inhibitor, partial curve]",–
Cc1c(Cl)cccc1NC(=S)/C(=C(\[O-])c1ccc(Cl)s1)[n+]1ccccc1,"inconclusive: 28.2 µM [inhibitor, partial curve]",–
CCC(c1nnnn1Cc1ccc(OC)cc1)N1CCN(c2ccc(OC)cc2)CC1 (stereo not given),"inconclusive: 50.1 µM [inhibitor, partial curve, poor fit]",–
NS(=O)(=O)c1ccc(N=Nc2c(-c3ccccc3)[nH]n(-c3nc(-c4ccccc4)cs3)c2=O)cc1,"inconclusive: 17.8 µM [inhibitor, partial curve]",–
COc1ccc(N2CCN(C3(c4ccccc4)C(=O)c4ccccc4C3=O)CC2)cc1,active: 12.6 µM,–
C#CCCCCCCC#CCN(C)C,"inconclusive: 50.1 µM [inhibitor, partial curve]",–
N#C/C(=C/c1ccccc1Cl)c1nc2ccccc2c(=O)[nH]1,–,inactive: 29.3%
Cc1cc(C)cc(NC(=O)C(NCC2CCCO2)c2ccccc2)c1 (stereo not given),"inconclusive: 35.5 µM [inhibitor, partial curve]",–
COC(=O)/C=C1\N/C(=N\c2nc(C)cc(C)n2)N(c2ccccc2)C1=O,–,inactive: 0.142%
Clc1cccc(-c2nc3ccccn3c2Nc2ccc3c(c2)OCCO3)c1,"inconclusive: 15.8 µM [inhibitor, full curve]",–
COc1ccc(C2C=C(c3ccc(F)cc3)NC(=S)N2)cc1OC (stereo not given),"inconclusive: 22.4 µM [inhibitor, partial curve, poor fit]",–
COc1ccc(S(=O)(=O)N2CCC(N3CCN(c4ccccc4OC)CC3)CC2)cc1,active: 39.8 µM,–
Cc1ccc(S(=O)(=O)c2c(C)nn(-c3ccccc3)c2OC(=O)c2ccc(Br)o2)cc1,–,inactive: 8.31%
CCN(CC)C(=O)[C@H]1C[C@H](CC(=O)NCc2ccco2)C(=O)N2CCc3c([nH]c4cc(-c5ccco5)ccc34)[C@]12C,"inconclusive: 44.7 µM [inhibitor, partial curve]",–
COc1ccc(N(C)C(=O)c2ccc3nc(-c4ccccc4)c(-c4ccccc4)nc3c2)cc1,"inconclusive: 39.8 µM [inhibitor, partial curve]",–
CC(/C=N/n1c(-c2ccco2)n[nH]c1=S)=C\c1ccco1,"inconclusive: 35.5 µM [inhibitor, single point]",–
Cc1ccc(NC(=O)CN(C)CCOc2ccccc2)c([N+](=O)[O-])c1,"inconclusive: 35.5 µM [inhibitor, partial curve]",–
O=C(NNc1nc2ccccc2s1)C1CC1,–,inactive: 23.9%
CC(OC(=O)c1cccc(-n2cnnn2)c1)C(=O)Nc1ccc(F)c(F)c1F (stereo not given),–,inactive: 57.7%
CCCCCOc1ccccc1CN1C(=O)C(=O)c2cc(C)ccc21,"inconclusive: 10 µM [inhibitor, full curve, poor fit]",–
S=C(Nc1cccc(Cl)c1)NC1CCCCC1,–,inactive: 49%
COc1ccc(OC)c(-c2csc(NC(=O)CSc3ccc([N+](=O)[O-])cc3)n2)c1,"inconclusive: 31.6 µM [inhibitor, partial curve]",–
O=C(CCl)N(O)c1ccc(C=Cc2ccccc2)cc1,–,inactive: 27.6%
N#Cc1cnc(NN)nc1,"inconclusive: 89.1 µM [inhibitor, single point]",–

Structure (SMILES),Potency,"activity change, negative = inhibition"
O=[N+]([O-])c1cc([N+](=O)[O-])c2c(=Nc3ccccc3)n(-c3ccccc3)n(O)c2c1,"inconclusive: 22.4 µM [inhibitor, partial curve]",–
COc1ccc(OC)c(Nc2cc(C(=O)NCCCN3CCOCC3)c3ccccc3n2)c1,–,inactive: -19.2%
CCOc1ccc(CCNC(=O)c2cc3sccc3n2CC)cc1OCC,"inconclusive: 70.8 µM [inhibitor, partial curve, poor fit]",–
NS(=O)(=O)c1ccc(-c2ccc(/C=C3\NC(=S)NC3=O)o2)cc1,"inconclusive: 35.5 µM [inhibitor, partial curve]",–
CCOC(=O)C1CCCN(C(=O)CCNS(=O)(=O)c2ccc3c(c2)CCC(=O)N3)C1 (stereo not given),"inconclusive: 39.8 µM [inhibitor, single point]",–
COc1cc(/C=C2\SC(=S)N(C(Cc3ccccc3)C(=O)O)C2=O)ccc1O (stereo not given),"inconclusive: 15.8 µM [inhibitor, full curve]",–
N/C(=C\C(=O)c1cc(Cl)ccc1O)C(Cl)(Cl)Cl,"inconclusive: 28.2 µM [inhibitor, full curve]",–
CSc1ncc(Cl)c(C(=O)C(C#N)c2nc3c(C)cc(C)cc3c(=O)[nH]2)n1 (stereo not given),"inconclusive: 31.6 µM [inhibitor, partial curve]",–
CCN(CC)c1ccc(N=C2C(=O)Nc3ccccc32)cc1,"inconclusive: 15.8 µM [inhibitor, partial curve, poor fit]",–
CCOC(=O)C1=C(C)n2c(s/c(=C/c3cccc([N+](=O)[O-])c3)c2=O)=NC1c1ccc(O)c(OC)c1 (stereo not given),"inconclusive: 8.91 µM [inhibitor, full curve, poor fit]",–
O=C(COc1ccccc1/C=C\c1[nH]c(=O)[nH]c(=O)c1[N+](=O)[O-])Nc1ccccc1,–,inactive: -9.55%
CC1Cc2ccccc2N1C(=O)CN1C(=O)NC(C)(CCc2ccccc2)C1=O (stereo not given),–,inactive: 4%
Cc1cc(C(=S)N2CCOCC2)c(C)n1-c1ccc(Cl)cc1,active: 44.7 µM,–
O=C(CSc1nc2[nH]c(=O)cc(O)c2s1)Nc1ccc(Cl)c(C(F)(F)F)c1,–,inactive: 18.7%
CN(CCCc1cnc[nH]1)C(=S)NCCCN(Cc1ccc(Cl)cc1)c1ccc(Br)cn1,"inconclusive: 35.5 µM [inhibitor, full curve]",–
C1CCN=C(Nc2nn[nH]n2)CC1,–,inactive: -2.13%
O=C(NN=C1CCCC1)c1ccccc1[N+](=O)[O-],–,inactive: 48.4%
CC1(C)CC(=O)C=C(NC2=CC3OC(c4ccccc4)OCC3OC2=O)C1 (stereo not given),–,inactive: 22.1%
CC1=NN(c2ccccc2)C(=O)C1/C=C1\NC(=S)NC1=O (stereo not given),"inconclusive: 70.8 µM [inhibitor, partial curve]",–
O=C(CCCN1C(=O)/C(=C/c2ccccc2Cl)SC1=S)Nc1ccccn1,"inconclusive: 35.5 µM [inhibitor, partial curve]",–
O=C(NCc1ccccc1)NC(O)C(Cl)(Cl)Cl (stereo not given),–,inactive: 15.2%
O=C1NN(c2ccc(F)cc2)C(=O)/C1=C/c1cccs1,–,inactive: -16.6%
